By IC50 is meant the dose at which the fit gives 50% viability; a fit beyond the top or the lowest dose is shown as a bound at that dose. AUC is the area under the same curve over the 256-fold range up to the top dose, as a fraction; it is 1 without any effect and falls as sensitivity rises. For part of these data: Where the top dose is marked as inferred, it was derived from the fitted curves, not read from the paper. For part of these data: An entry number marks a drug with two screens in the source, which often give different values.
What was measured:
Experiment in all cases: Viability of human cancer cell lines after 72 h of drug (GDSC screen)
[1] = compound: CCc1nc(N)nc(N)c1-c1ccc(Cl)cc1 [Pyrimethamine]; conditions: top dose 20 µM; top dose inferred
Procedure: (§1)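 Human cancer cell lines in 384-well plates, medium with 10% serum, drug for 72 h over a 256-fold dose range (nine 2-fold or five 4-fold steps up to the top dose). Adherent lines were fixed and stained with the nucleic acid dye Syto60, suspension lines read with resazurin; signal relative to control wells, capped at 0 and 100%. One two-parameter sigmoid per drug and line, fitted in a mixed model over all curves with the slope shared within a line.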

[2] = compound: CC(C)CC(=O)Nc1n[nH]c2c1CN(C(=O)C1CCN(C)CC1)C2(C)C [PHA-793887]; conditions: top dose 10.24 µM
Procedure: as §1

[3] = compound: C/C(=C\c1csc(C)n1)[C@@H]1C[C@@H]2O[C@]2(C)CCC[C@H](C)[C@H](O)[C@@H](C)C(=O)C(C)(C)[C@@H](O)CC(=O)O1 [Epothilone B]; conditions: top dose 0.032 µM; top dose inferred
Procedure: as §1

[4] = compound: CN1CCN(CCOc2cc(OC3CCOCC3)c3c(Nc4c(Cl)ccc5c4OCO5)ncnc3c2)CC1 [AZD-0530]; conditions: top dose 2 µM
Procedure: as §1

[5] = compound: NC(=O)Nc1sc(-c2ccc(F)cc2)cc1C(N)=O [TPCA-1]; conditions: top dose 20 µM
Procedure: as §1

[6] = compound: C[C@@H](N)c1ccc(C(=O)Nc2ccnc3[nH]ccc23)cc1 [Y-39983]; conditions: top dose 20 µM; top dose inferred
Procedure: as §1

[7] = compound: CCCS(=O)(=O)Nc1ccc(F)c(C(=O)c2c[nH]c3ncc(Cl)cc23)c1F [PLX4720]; conditions: top dose 10 µM
Procedure: as §1

[8] = screen: GDSC drug entry 1371, top dose inferred

Cell Line	AUC [1]	IC50 [1]	AUC [2]	IC50 [2]	AUC [3]	IC50 [3]	AUC [4]	IC50 [4]	AUC [5]	IC50 [5]	AUC [6]	IC50 [6]	AUC [7, 8]	IC50 [7, 8]	AUC ([7]; screen: GDSC drug entry 1036)	IC50 ([7]; screen: GDSC drug entry 1036)
LS-123 (large intestine, adherent)	0.977	> 20 µM	0.806	7.41 µM	0.429	0.0012 µM	0.916	> 2 µM	0.906	> 20 µM	0.978	> 20 µM	0.98	> 10 µM		
LS-411N (large intestine, adherent)	0.42	0.717 µM	0.807	6.65 µM	0.765	0.0142 µM	0.981	> 2 µM	0.8	12.2 µM	0.779	10.1 µM	0.871	> 10 µM	0.823	7.64 µM
LS-513 (large intestine, adherent)	0.986	> 20 µM	0.947	> 10.2 µM	0.855	0.0273 µM	0.986	> 2 µM	0.694	4.48 µM	0.93	> 20 µM	0.984	> 10 µM	0.987	> 10 µM
LS-1034 (large intestine, adherent)	0.844	16.6 µM	0.935	> 10.2 µM	0.401	0.00104 µM	0.986	> 2 µM	0.838	15.6 µM	0.905	> 20 µM	0.985	> 10 µM	0.986	> 10 µM
LU-134-A (small cell lung carcinoma, suspension)	0.928	> 20 µM	0.887	> 10.2 µM	0.766	0.0126 µM	0.985	> 2 µM	0.825	13.1 µM	0.87	> 20 µM	0.971	> 10 µM	0.974	> 10 µM
LU-165 (small cell lung carcinoma, suspension)	0.965	> 20 µM	0.945	> 10.2 µM	0.931	> 0.032 µM	0.984	> 2 µM	0.893	> 20 µM	0.968	> 20 µM	0.843	8.4 µM	0.943	> 10 µM
LXF-289 (lung adenocarcinoma, adherent)	0.985	> 20 µM	0.881	> 10.2 µM	0.311	0.000599 µM	0.884	> 2 µM	0.89	> 20 µM	0.961	> 20 µM	0.96	> 10 µM	0.948	> 10 µM
MC116 (B-cell lymphoma, suspension)	0.953	17.3 µM	0.738	2.4 µM	0.624	0.00397 µM	0.997	> 2 µM	0.767	5.51 µM	0.975	> 20 µM	0.999	> 10 µM	0.999	> 10 µM
MC-CAR (haematopoietic neoplasm, suspension)	0.989	> 20 µM	0.714	2.39 µM	0.71	0.00727 µM	0.989	> 2 µM	0.551	1.7 µM	0.849	12.6 µM	0.979	> 10 µM	0.959	> 10 µM
MDST8 (large intestine, adherent)	0.895	> 20 µM	0.894	> 10.2 µM	0.859	0.0261 µM	0.986	> 2 µM	0.811	10.5 µM	0.984	> 20 µM	0.837	6.64 µM	0.887	> 10 µM
ME-1 (acute myeloid leukaemia, suspension)	0.987	> 20 µM	0.986	> 10.2 µM	0.89	> 0.032 µM	0.987	> 2 µM	0.803	10.8 µM	0.988	> 20 µM	0.988	> 10 µM	0.984	> 10 µM
MEG-01 (chronic myeloid leukaemia, suspension)	0.763	6.8 µM	0.819	5.37 µM	0.477	0.00174 µM	0.582	0.206 µM	0.497	1.23 µM	0.973	> 20 µM	0.932	> 10 µM	0.936	> 10 µM
MFM-223 (breast, adherent)	0.985	> 20 µM	0.963	> 10.2 µM	0.984	> 0.032 µM	0.988	> 2 µM	0.746	6.29 µM	0.983	> 20 µM	0.988	> 10 µM	0.978	> 10 µM
MHH-PREB-1 (B-cell leukaemia, suspension)	0.862	14.3 µM	0.653	1.61 µM	0.622	0.00416 µM	0.976	> 2 µM	0.466	1.02 µM	0.867	14.9 µM	0.947	> 10 µM	0.976	> 10 µM

Reference: the supplement of paper PMC4967469
